The values below come from the supplement of paper PMC11060735.

Molecules are shown by their SMILES. Where “and” joins values, the source holds several entries; their conditions need not be identical. Identical values can stand only once. Counter-ions that a name gives are not always drawn. About 50 (3%) of roughly 1,800 compounds showed activity. The list shows a part of the results.
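Also: fibroblasts sorted 14 days after bleomycin, GFP+ and GFP− mixed 1:1 in 384-well plates (GFP− as in-well control), imaged after Hoechst and NucView530 staining, reference wells lacked compound.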

The test system of this assay is mouse p16Ink4a+/- lung fibroblasts (INKBRITE, bleomycin-injured). Put plainly: percentage of GFP+ (p16Ink4a+) fibroblasts among all cells in well; higher = less depletion of p16Ink4a+ cells, active = 20 or less. Particulars: 1 µM; 3 days.
As for `CN1[C@@H]2C[C@@H](O)C[C@H]1[C@@H]1O[C@@H]12` [Scopine HCl], the “percentage of GFP+” value is inactive: 42% and inactive: 40.5%.

Turning to `C=C1C[C@@H]2[C@H](CC[C@]3(C)C(=O)CC[C@@H]23)[C@@]2(C)C=CC(=O)C=C12` [Exemestane], the “percentage of GFP+” value was inactive: 36.2%.

Consider `NCCc1c[nH]c2ccc(O)cc12` [Serotonin Hydrochloride], for which the “percentage of GFP+” value is inactive: 46.3%.

In the case of `O=C1CC[C@@]2(O)[C@H]3Cc4ccc(O)c5c4[C@@]2(CCN3CC2CC2)[C@H]1O5` [Naltrexone;  _x000D_  naltrexone depot], the “percentage of GFP+” value is inactive: 40.2%.

Consider `Cc1ccc(-n2nccn2)c(C(=O)N2CCN(c3nc4cc(Cl)ccc4o3)CC[C@H]2C)c1` [Suvorexant], for which the “percentage of GFP+” value was inactive: 39.7%.

On to `COc1ccc(C(=O)N2CCCC2=O)cc1` [Aniracetam], for which the “percentage of GFP+” value is inactive: 48.5%.

Turning to `CCCC[N+]1(C)[C@@H]2C[C@@H](OC(=O)[C@H](CO)c3ccccc3)C[C@H]1[C@@H]1O[C@@H]12` (some centres not stated) [Scopolamine butylbromide], the “percentage of GFP+” value is inactive: 34.4%.

For the molecule `NC(=O)CN1CCCC1=O` [Piracetam], the “percentage of GFP+” value is inactive: 47.8%.

`C[C@@H]1CC[C@@]2(OC1)O[C@H]1C[C@H]3[C@@H]4CC=C5C[C@@H](O[C@@H]6O[C@H](CO)[C@@H](O[C@@H]7O[C@@H](C)[C@H](O)[C@@H](O)[C@H]7O)[C@H](O)[C@H]6O[C@@H]6O[C@@H](C)[C@H](O)[C@@H](O)[C@H]6O)CC[C@]5(C)[C@H]4CC[C@]3(C)[C@H]1[C@@H]2C` [Dioscin]: the “percentage of GFP+” value is inactive: 32.7%.

Regarding `CN1C2CCC1CC(OC(=O)[C@H](CO)c1ccccc1)C2` (some centres not stated) [Hyoscyamine], the “percentage of GFP+” value is inactive: 46.3%.

Regarding `CCC1=C[C@@H]2CN3CCc4c([nH]c5ccccc45)[C@@](C(=O)OC)(C2)[C@@H]13` [Catharanthine], the “percentage of GFP+” value is inactive: 47.9%.

Take `CN1CCC(c2c[nH]c3ccc(O)cc23)CC1`: the “percentage of GFP+” value was inactive: 45.6%.

For `O=C1CCC[C@@H]2[C@H]3CCCN4CCC[C@@H](CN12)[C@@H]34` [(+)-Matrine], the “percentage of GFP+” value was inactive: 45.5%.

For the molecule `O=c1ccc2cc(O[C@@H]3O[C@H](CO)[C@@H](O)[C@H](O)[C@H]3O)c(O)cc2o1` [Esculin], the “percentage of GFP+” value was inactive: 41.7%.

As to `NCC(O)c1ccc(O)cc1` (racemic) [(¬±)-octopamine Hydrochloride, Octopamine Hydrochloride], the “percentage of GFP+” value is inactive: 42.7%.

In the case of `Cc1cccc(C)c1NC1=NCCCS1` [Xylazine Hydrochloride, Xylazine], the “percentage of GFP+” value is inactive: 39.9%.

Take `C[C@](O)(COc1ccc(C#N)cc1)C(=O)Nc1ccc(C#N)c(C(F)(F)F)c1`: the “percentage of GFP+” value is inactive: 43.3%.

As to `CCC(COC(=O)c1cc(OC)c(OC)c(OC)c1)(c1ccccc1)N(C)C` (configuration not stated) [Trimebutine], the “percentage of GFP+” value is inactive: 42.6%.

As for `C=CC[C@]1(O)CC[C@H]2[C@@H]3CCC4=CC(=O)CCC4=C3C=C[C@@]21C` [Altrenogest], the “percentage of GFP+” value is inactive: 48.5%.

As to `N[C@@H]1C[C@H]1c1ccccc1` [Tranylcypromine (2-PCPA) HCl], the “percentage of GFP+” value is inactive: 47.5%.

As to `Cc1cc2c(C(C)C)c(O)c(O)c(C=O)c2c(O)c1-c1c(C)cc2c(C(C)C)c(O)c(O)c(C=O)c2c1O` [Gossypol], the “percentage of GFP+” value is inactive: 48.8% and inactive: 49.7%.

`CCN(C)C(=O)Oc1cccc([C@H](C)N(C)C)c1` [Rivastigmine]: the “percentage of GFP+” value is inactive: 48.3%.

Turning to `C1=C2CCCN[C@H]2[C@@H]2C[C@H]1[C@H]1CCCCN1C2` [Aloperine], the “percentage of GFP+” value was inactive: 44.4%.

Consider `CNCC(=O)c1ccc(O)c(O)c1` [Adrenolone Hydrochloride], for which the “percentage of GFP+” value was inactive: 42%.

With `CC(C)N(CCNC(=O)CN1CCCC1=O)C(C)C` [Pramiracetam], the “percentage of GFP+” value is inactive: 39.9%.

For the molecule `CCOc1ccccc1-n1c(C(C)N2CCN(C(=O)COc3ccc(Cl)cc3)CC2)nc2ccccc2c1=O` (configuration not stated) [Erastin], the “percentage of GFP+” value is inactive: 34.3%.

Take `COC(=O)C1=CCCN(C)C1` [Arecoline]: the “percentage of GFP+” value is inactive: 45.2%.
